The other results are listed elsewhere or left out. Many values rest on one well or one pass, so single values are uncertain.
How the values were obtained:
Assay in all cases: cell count relative to DMSO control; melanoma cells; higher = more viable cells
Settings in all cases: library dose: low library concentration; 72 h
WM115 = system: WM115
WM1716 = system: WM1716
WM1745 = system: WM1745
WM3526 = system: WM3526
WM3619 = system: WM3619
WM451Lu = system: WM451Lu
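Also: cell number obtained by counting DAPI-stained nuclei in high-throughput microscope images with image analysis software, screen run in 1,536-well plates.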

Row | Compound | cell count (WM115) | cell count (WM1716) | cell count (WM1745) | cell count (WM3526) | cell count (WM3619) | cell count (WM451Lu)
1 | CCCCCCCCc1ccc(CCC(N)(CO)CO)cc1 [fingolimod] + CC(C)C[C@H](NC(=O)[C@H](Cc1ccccc1)NC(=O)c1cnccn1)B(O)O [Bortezomib] (first compound 2 µM, partner dose 0.001 µM) | 98.3% | 59.4% | 68.1% | 84% | 25.6% | 102%
2 | NC(=O)c1ccc(N(C(N)=O)c2c(F)cccc2F)nc1-c1ccc(F)cc1F + CCc1ccc(CCOc2ccc(CC3SC(=O)NC3=O)cc2)nc1 [pioglitazone] (first compound 0.4 µM, partner dose 2 µM) | 97.7% | 104% | 103% | 99.5% | 77.5% | 88.5%
3 | CC(C)(C)c1cnc(CSc2cnc(NC(=O)C3CCNCC3)s2)o1 + NCC(=O)Nc1ccc(-n2nc(C(F)(F)F)cc2-c2ccc3c(ccc4ccccc43)c2)cc1 [OSU03012] (first compound 0.01 µM, partner dose 1 µM) | 94.1% | 102% | 84.8% | 65.9% | 89.3% | 77.1%
4 | NC(=O)c1ccc(N(C(N)=O)c2c(F)cccc2F)nc1-c1ccc(F)cc1F + NCC(=O)Nc1ccc(-n2nc(C(F)(F)F)cc2-c2ccc3c(ccc4ccccc43)c2)cc1 [OSU03012] (first compound 0.4 µM, partner dose 1 µM) | 84.3% | 110% | 88.9% | 62.5% | 93.9% | 93.8%
5 | CCc1ccc(CCOc2ccc(CC3SC(=O)NC3=O)cc2)nc1 (centres undefined) [pioglitazone] + Oc1nc(-c2ccc(C(F)(F)F)cc2)nc2c1CSCC2 [XAV939] (first compound 2 µM, partner dose 2 µM) | 94.9% | 60.8% | 71.8% | 94.6% | 95.8% | 90.5%
6 | CC(C)(C)c1cnc(CSc2cnc(NC(=O)C3CCNCC3)s2)o1 + Cn1cncc1[C@@](N)(c1ccc(Cl)cc1)c1ccc2c(c1)c(-c1cccc(Cl)c1)cc(=O)n2C [tipifarnib] (first compound 0.01 µM, partner dose 0.01 µM) | 88.5% | 73% | 104% | 85.7% | 82.1% | 103%
7 | Cc1ccc(NC(=O)c2cccc(N(C)C)c2)cc1NC(=O)c1ccc(O)cc1 + CCc1ccc(CCOc2ccc(CC3SC(=O)NC3=O)cc2)nc1 [pioglitazone] (first compound 2 µM, partner dose 2 µM) | 107% | 94.8% | 91.9% | 115% | 92.8% | 92.2%
8 | Cc1ccc(NC(=O)c2cccc(N(C)C)c2)cc1NC(=O)c1ccc(O)cc1 + N#Cc1c(O)c2c(-c3ccc(-c4ccccc4O)cc3)csc2[nH]c1=O [A769662] (first compound 2 µM, partner dose 2 µM) | 104% | 105% | 93.1% | 77% | 98% | 105%
9 | CCCCCCCCc1ccc(CCC(N)(CO)CO)cc1 [fingolimod] + COCC[n+]1c2c(n(Cc3cnccn3)c1C)C(=O)c1ccccc1C2=O [YM155] (first compound 2 µM, partner dose 0.0004 µM) | 94.6% | 75.1% | 89.2% | 81.5% | 87.3% | 78.1%
10 | CCc1ccc(CCOc2ccc(CC3SC(=O)NC3=O)cc2)nc1 (centres undefined) [pioglitazone] + COc1ccc2c(c1)CCC1C2CCC2(C)C(NCCCCCCN3C(=O)C=CC3=O)CCC12 [U73122] (first compound 2 µM, partner dose 0.4 µM) | 92.2% | 96.4% | 86.2% | 95.3% | 132% | 84.3%
11 | CCCCCCCCc1ccc(CCC(N)(CO)CO)cc1 [fingolimod] + O=C(O)c1ccc2c(c1)nc(Nc1cccc(Cl)c1)c1ccncc12 [CX4945] (first compound 2 µM, partner dose 0.4 µM) | 91% | 94.3% | 82.1% | 94.1% | 78.3% | 86.3%
12 | Cc1ccc(NC(=O)c2cccc(N(C)C)c2)cc1NC(=O)c1ccc(O)cc1 + Cc1cc(N2CCOCC2)cc2[nH]c(-c3c(NC[C@@H](O)c4cccc(Cl)c4)cc[nH]c3=O)nc12 [BMS536924] (first compound 2 µM, partner dose 0.2 µM) | 97.2% | 104% | 87.7% | 124% | 76.9% | 83.7%
13 | NC(=O)c1ccc(N(C(N)=O)c2c(F)cccc2F)nc1-c1ccc(F)cc1F + COc1ccc(COc2ccc(Cc3cnc(N)nc3N)cc2OC)cc1 [GW2580] (first compound 0.4 µM, partner dose 1 µM) | 82.6% | 85.1% | 92.1% | 86.6% | 111% | 99.5%
14 | NC(=O)c1ccc(N(C(N)=O)c2c(F)cccc2F)nc1-c1ccc(F)cc1F + CNC(=O)c1cc(Oc2ccc(NC(=O)Nc3ccc(Cl)c(C(F)(F)F)c3)cc2)ccn1 [sorafenib] (first compound 0.4 µM, partner dose 0.4 µM) | 94.6% | 94.1% | 93.6% | 88.4% | 80.8% | 93.4%

Reference: the supplement of paper PMC4604168 (melanoma cell lines)
